Measurements reported in PubChem BioAssay (NCI).
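Interpolation was linear, between the two tested concentrations surrounding the appropriate level; five concentrations were tested over 48 hours in 96-well plates. The concentration for 50% growth inhibition is given as GI50. TGI is the concentration that stops growth completely.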

Tested on: NCI-H322M lung
Assay: NCI tumour cell line growth inhibition, 48 h

| Structure (SMILES) | GI50 | TGI |
| --- | --- | --- |
| COc1ccc([C@H]2[C@H](O)C(=O)N2c2cc(OC)c(OC)c(OC)c2)cc1Cl | < 0.021 µM | > 100 µM |
| CCC(C)[C@H]1C(=O)O[C@H](C(C)C)C(=O)N(C)[C@@H](C(C)C)C(=O)O[C@H](C(C)C)C(=O)N(C)[C@@H](C(C)C)C(=O)O[C@H](C(C)C)C(=O)N1C (some centres undefined) | 2.5 µM | > 10 µM |
